Source: PMC4300205, “Human Cerberus Prevents Nodal-Receptor Binding, Inhibits Nodal Signaling, and Suppresses Nodal-Mediated Phenotypes” (PLoS ONE, 2015)

Legend:
recombinant human Nodal = biological target: T1, recombinant human Nodal (human, UniProt Q96S42 238-347); assay: SPR; Biacore 2000; 200-300 RU of Fc fusion captured by anti-human IgG (Fc) antibody on a CM5 chip; concentration series of ligand injected at 50 ul/min; 25 C; HBS-EPS (0.01 M HEPES, 0.5 M NaCl, 3 mM EDTA, 0.005% Tween 20, pH 7.4); 1:1 Langmuir model with mass transport; Kd = kd/ka; conditions: both partners purified
T1 construct: Nodal, human, recombinant (RnD Systems); source: bought: RnD Systems
T1 sequence (looked up): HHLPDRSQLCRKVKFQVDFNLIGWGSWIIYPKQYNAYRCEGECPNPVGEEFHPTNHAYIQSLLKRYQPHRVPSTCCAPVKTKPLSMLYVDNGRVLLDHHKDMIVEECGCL

Recombinant Activin A = biological target: T2, Recombinant Activin A (human, UniProt P08476 311-426); assay: as above; conditions: both partners purified
T2 construct: Activin A (inhibin beta A chain), recombinant; source: bought: R&D Biosystems or Life Technologies; also produced in-house
T2 sequence (looked up): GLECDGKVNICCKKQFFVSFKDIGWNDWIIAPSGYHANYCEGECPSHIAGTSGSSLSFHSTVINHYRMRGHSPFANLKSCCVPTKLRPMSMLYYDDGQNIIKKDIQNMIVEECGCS

B1: human ACTRIIA-hIgg-Fc (Fc fusion)
chain: not shown
notes: signal peptide in the construct; extracellular domain of human ActRIIA ([…]), joined to human IgG1 Fc by a 22 amino acid linker with a TEV site, a glycine/serine rich region and a FLAG-tag; Synthetic gene from GeneArt; also called ACTRIIA-Fc; source: CHO cells, purified from conditioned medium (Protein A, SEC)
Kd (recombinant human Nodal): 100 nM
koff (recombinant human Nodal): 0.002 s⁻¹
kon (recombinant human Nodal): 20000 M⁻¹ s⁻¹
Kd (Recombinant Activin A): 0.023 nM
koff (Recombinant Activin A): 2.5e-05 s⁻¹
kon (Recombinant Activin A): 1.1e+06 M⁻¹ s⁻¹
